Results taken from PubChem BioAssay AID1346428 (National Center for Advancing Translational Sciences (NCATS), 2018).
The whole screen tested about 48,000 compounds, of which about 1,200 (2.5%) were called active. About 2% were inconclusive and are not listed.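 How the source made its calls: active means activation of at least 60% and not above a set upper limit (about 1 call in 100 departs from these limits); inconclusive means activation of 40% to 60%, or above that upper limit; inactive means activation under 40%.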 This is one part of the list.

Target: Probable G-protein coupled receptor 32 (Homo sapiens) (UniProt O75388)
Experiment: qHTS for Agonists of Human Resolvin D1 Receptor DRV1; further: 0% is about no effect
Settings: CHO-K1 GPR32 beta-arrestin PathHunter luminescence, 90 min; at 76.9 µM; active compounds read high; zero percent set by DMSO-only wells
Outline: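 Agonism was scored by beta-Gal fragment complementation (chemiluminescent read, 1 h detection at ambient temperature) reporting beta-arrestin binding to GPR32 in engineered CHO-K1 cells. Compound treatment lasted 90 min at 37 C, normalized to a DMSO basal control.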

UniProt O75388, sequence (O75388 whole entry, looked up): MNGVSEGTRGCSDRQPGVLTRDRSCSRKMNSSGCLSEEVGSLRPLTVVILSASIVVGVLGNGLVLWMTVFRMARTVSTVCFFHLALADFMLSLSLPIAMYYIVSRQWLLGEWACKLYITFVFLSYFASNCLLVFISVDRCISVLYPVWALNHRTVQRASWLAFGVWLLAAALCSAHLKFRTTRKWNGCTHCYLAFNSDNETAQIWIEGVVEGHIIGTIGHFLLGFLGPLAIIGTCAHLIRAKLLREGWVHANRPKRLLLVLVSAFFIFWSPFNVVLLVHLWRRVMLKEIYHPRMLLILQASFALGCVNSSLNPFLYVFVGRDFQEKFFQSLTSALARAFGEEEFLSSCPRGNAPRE

**Q.** `COc1cc(CNc2ccc3[nH]c(=O)[nH]c3c2)ccc1OCc1ccccc1F` was tested. Which activation did it give?
**A.** inactive: 9.08%

**Q.** For `CCOC(=O)c1ccc(OCCN2C[C@H](O)[C@@H](O)[C@H](O)[C@H]2CO)cc1`, which activation is on record?
**A.** inactive: -16.4%

**Q.** How did the activation turn out when `COc1ccc(Cl)cc1NC(=O)CSc1ccc(-c2sc(C)nc2C)nn1` was run?
**A.** inactive: -0.802%

**Q.** `CC(C)Cc1nn2c(=O)cc(COC(=O)c3ccc4c(c3)OCO4)nc2s1` was tested. Which activation did it give?
**A.** inactive: 8.23%

**Q.** How did the activation turn out when `CN(C)c1ccc(C(CNS(=O)(=O)c2ccc(Br)cc2)N2CCCC2)cc1` (stereo not drawn) was run?
**A.** inactive: -6.11%

**Q.** Which activation does the source give for `CCN(CC)S(=O)(=O)c1ccc(NC(=O)CCc2c(C)nc3cc(-c4ccc(Cl)cc4)nn3c2C)cc1` here?
**A.** inactive: -5.71%

**Q.** With `CCOC(=O)c1cc2c(=O)n3ccccc3nc2n(CCCOC)c1=NC(=O)C(C)(C)Oc1ccc(Cl)cc1` as the compound, how does the activation read?
**A.** inactive: -8.76%

**Q.** For `Cc1ccc(OCc2nc(-c3ccc(C(=O)N4CCN(c5ccc(Cl)cc5)CC4)cc3)oc2C)cc1`, which activation is on record?
**A.** inactive: -25%

**Q.** `Cc1nn(Cc2ccc(Cl)cc2)c(C)c1NC(=O)c1noc2c1CCc1ccccc1-2` was tested. Which activation did it give?
**A.** active: 107%

**Q.** `Cc1cccc(-c2nc(SCC(=O)Nc3cccc(C(F)(F)F)c3)n3[nH]c(=O)cc3n2)c1` was tested. Which activation did it give?
**A.** inactive: -23.6%

**Q.** How did the activation turn out when `CCOc1ccc(CNC(=O)C2CCCN(S(=O)(=O)c3ccc4c(c3)CCCC(=O)N4)C2)cc1` (stereo not drawn) was run?
**A.** inactive: 16.1%

**Q.** For `CC(C)CCNC(=O)CSc1c2c(nc3ccc(Cl)cc13)CCCC2`, which activation is on record?
**A.** inactive: -19.3%

**Q.** With `CC(C)Oc1ccc(CNC(=O)Cn2c(=O)oc3ccccc32)cc1` as the compound, how does the activation read?
**A.** inactive: 37.8%

**Q.** `CCOC(=O)C1=C(CN2CCN(CC)CC2)NC(=O)NC1c1ccc(Cl)cc1` (stereo not drawn) was tested. Which activation did it give?
**A.** inactive: 8.2%

**Q.** For `Cc1cc(C(=O)NCc2ccccc2C)c2c(C)nn(-c3cccc(F)c3)c2n1`, which activation is on record?
**A.** inactive: -12.5%

**Q.** With `CCCCCCn1c(CNC(=O)c2ccccc2)nc2ccccc21` as the compound, how does the activation read?
**A.** inactive: -6.19%

**Q.** How did the activation turn out when `O=C(CC1N=C2c3ccccc3N=C(SCc3ccc(F)cc3)N2C1=O)NCc1cccs1` (stereo not drawn) was run?
**A.** inactive: -15.1%

**Q.** With `COc1ccc2c(c1)CCc1c(C(=O)Nc3ccccc3C(F)(F)F)noc1-2` as the compound, how does the activation read?
**A.** inactive: 3.88%

**Q.** With `CCc1ccc(NC(=O)Cn2ncc3c4ccccc4n(C)c3c2=O)cc1` as the compound, how does the activation read?
**A.** inactive: -14.5%

**Q.** Which activation does the source give for `COc1cccc(CNC(=O)Cn2cc3c(n2)-c2c(oc(C(=O)N4CCCC4)c2C)CC3)c1` here?
**A.** inactive: 0.387%

**Q.** Which activation does the source give for `CCOC(=O)c1scc(-c2ccc(C)cc2)c1S(=O)(=O)Nc1cc(Cl)ccc1OC` here?
**A.** inactive: -4.68%

**Q.** For `CCCCn1cc(S(=O)(=O)c2ccc(OC)cc2)c(=O)c2cc(F)c(F)cc21`, which activation is on record?
**A.** inactive: -18.2%

**Q.** `CCc1ccc(NC(=O)CSc2nc(-c3ccccc3)c(C#N)c(=O)[nH]2)cc1` was tested. Which activation did it give?
**A.** inactive: 12%
